Consider 38 compounds from the supplement of paper PMC9446081.

Each structure is given as a SMILES string. About 220 (0.56%) of roughly 39,000 compounds showed activity. The list shows a part of the results.
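Further: static incubation at 37 °C against the wild-type strain, values averaged over two biological replicates.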

In this experiment the test system is Escherichia coli K-12 BW25113. The experiment in a line: relative growth (OD600 normalised to plate interquartile mean) (fraction); higher = less growth inhibition, active = 0.2 or less. To be noted: 50 µM; LB; incubation time: overnight (16-24 h).
Consider `COc1ccc(S(=O)(=O)Nc2ccc3c(c2)C(=O)N([C@H](C)CO)C[C@@H](C)[C@H](CN(C)Cc2ccc(C(=O)O)cc2)OCCCC[C@@H](C)O3)cc1`, for which the relative growth is inactive: 1. Next, `C[C@@H]1CN([C@@H](C)CO)C(=O)c2cc(NC(=O)Nc3ccc(C(F)(F)F)cc3)ccc2O[C@H]1CN(C)Cc1ccncc1`: inactive: 0.948. For the compound `C[C@H](CO)N1C[C@H](C)[C@H](CN(C)C(=O)Nc2ccc(C(F)(F)F)cc2)OCCCC[C@H](C)Oc2ccc(NC(=O)Cc3ccccc3)cc2C1=O`, the relative growth is inactive: 0.995.

With `CC(=O)N1CCN(c2ncnc3nc[nH]c23)CC1`, the relative growth is inactive: 1. For the compound `C[C@@H]1CN([C@@H](C)CO)C(=O)c2cc(NS(=O)(=O)c3ccc(Cl)cc3)ccc2O[C@H]1CN(C)S(=O)(=O)c1cn(C)cn1`, the relative growth is inactive: 1.01. As for `C[C@H](CO)N1C[C@H](C)[C@H](CN(C)C(=O)Nc2ccc3c(c2)OCO3)Oc2ccc(NS(C)(=O)=O)cc2C1=O`, the relative growth is inactive: 1.02. Next, `C[C@@H]1O[C@H]2Oc3c(-c4ccc(O)cc4)oc4cc(O)c(c(O)c4c3=O)-c3cc(ccc3O)/C=C\C(=O)OC[C@H]3O[C@@H](O[C@H]([C@H]1O)[C@H]2O)[C@H](O)[C@@H](O)[C@@H]3O`: inactive: 0.996; `C[C@H](CO)N1C[C@H](C)[C@@H](CN(C)Cc2ccc3c(c2)OCO3)Oc2ncc(C#CCN(C)C)cc2C1=O`: inactive: 1; `C[C@@H]1CN([C@@H](C)CO)C(=O)c2cc(NC(=O)CCC(F)(F)F)ccc2O[C@@H](C)CCCCO[C@H]1CN(C)C(=O)CCC(F)(F)F`: inactive: 0.991. With `C=CCc1ccc(O)c(OC)c1`, the relative growth is inactive: 1.1. Next, `CCCCCN1CC=C[C@@]23O[C@@H]4C=CCOC(=O)[C@@H]4[C@H]2C(=O)N(CCCO)[C@@H]3C1=O`: inactive: 1.04; `CCS(=O)(=O)N1CC[C@]2(CC1)CN([C@H](CO)c1c2c2ccc(cc2n1C)OC)C(=O)c1ccc(cc1)F`: inactive: 1.

On to `COc1cccc(CN(C)C[C@@H]2OCc3ccccc3-c3c(n(C)c4ccccc34)C(=O)N([C@H](C)CO)C[C@@H]2C)c1`, for which the relative growth is inactive: 1.01. Regarding `O=C(C[C@H]1CC[C@@H]2[C@H](COC[C@@H](O)CN2C(=O)Nc2cccc(Cl)c2)O1)NCCCN1CCOCC1`, the relative growth was inactive: 0.916. Consider `O=C(O)[C@H]1CCS(=O)(=O)C1`, for which the relative growth is inactive: 0.938. With `C[C@@H]1CN([C@@H](C)CO)C(=O)c2cc(NC(=O)C3CCCCC3)ccc2O[C@H]1CN(C)Cc1ccc(Oc2ccccc2)cc1`, the relative growth was inactive: 0.982. For the compound `Cc1ccc(S(=O)(=O)N2C[C@@H](O)COC[C@@H]3O[C@@H](CC(=O)NCc4ccc5c(c4)OCO5)CC[C@H]32)cc1`, the relative growth is inactive: 1.03. Next, `C[C@@H]1CCCCO[C@@H](CN(C)Cc2ccc(Cl)c(Cl)c2)[C@H](C)CN([C@H](C)CO)C(=O)c2cc(NS(C)(=O)=O)ccc2O1`: inactive: 1.01; `C[C@@H]1CN([C@H](C)CO)C(=O)c2cc(NC(=O)Nc3ccc4c(c3)OCO4)ccc2O[C@H]1CN(C)C(=O)Nc1cccc2ccccc12`: inactive: 1.01. Take `C[C@@H]1CCCCO[C@@H](CN(C)CC2CCCCC2)[C@@H](C)CN([C@H](C)CO)C(=O)c2cc(NC(=O)c3ccncc3)ccc2O1`: the relative growth was inactive: 0.984. As for `CC[C@@]1(O)C[C@H](O[C@H]2C[C@H](N(C)C)[C@H](O[C@H]3C[C@H](O)[C@H](O[C@H]4CCC(=O)[C@H](C)O4)[C@H](C)O3)[C@H](C)O2)c2c(cc3c(c2O)C(=O)c2c(O)cccc2C3=O)[C@H]1C(=O)OC`, the relative growth is inactive: 1.01.

With `CCNc1nc(SCC(N)=O)nc(N2CCOCC2)n1`, the relative growth was inactive: 1.03.

Consider `CO[C@H]1CN(C)C(=O)c2cc(NC(C)=O)ccc2OC[C@H](C)N(S(=O)(=O)c2cn(C)cn2)C[C@H]1C`, for which the relative growth was inactive: 0.981.

For the compound `Cc1noc(C)c1NC(=O)N(C)C[C@H]1Oc2ccc(NS(=O)(=O)c3cccs3)cc2CC(=O)N([C@H](C)CO)C[C@@H]1C`, the relative growth was inactive: 0.991.

For the compound `C[C@H](CO)N1C[C@H](C)[C@@H](CN(C)C(=O)c2ccncc2)Oc2ncc(C#CC3CCCCC3)cc2C1=O`, the relative growth is inactive: 0.995. Regarding `C[C@H](CO)N1C[C@H](C)[C@H](CN(C)S(=O)(=O)c2cn(C)cn2)Oc2c(NS(=O)(=O)c3ccccc3)cccc2C1=O`, the relative growth was inactive: 0.995. Take `C[C@@H]1CN([C@H](C)CO)C(=O)Cc2cc(NC(=O)Cn3cnnn3)ccc2O[C@@H]1CN(C)Cc1ccc(Cl)c(Cl)c1`: the relative growth was inactive: 0.97.

As to `C[C@@H]1CCCCO[C@H](CN(C)S(=O)(=O)c2ccc(Cl)cc2)[C@@H](C)CN([C@@H](C)CO)C(=O)c2cc(NS(=O)(=O)c3cccs3)ccc2O1`, the relative growth was inactive: 1.01.

Consider `COCC#Cc1ccc2c(c1)O[C@H](CN(C)Cc1ccc(F)cc1)[C@H](C)CN([C@@H](C)CO)S2(=O)=O`, for which the relative growth is inactive: 1.03. With `C[C@H](CO)N1C[C@H](C)[C@H](CN(C)Cc2ccc(Oc3ccccc3)cc2)Oc2c(NC(=O)NC3CCCCC3)cccc2C1=O` the figure was inactive: 0.99. With `C[C@H]1CN([C@@H](C)CO)C(=O)Cc2cc(NS(=O)(=O)c3ccccc3)ccc2O[C@H]1CN(C)S(=O)(=O)c1cccs1` the figure was inactive: 0.998.

On to `CCC(=O)Nc1ccc(Cl)cc1`, for which the relative growth was inactive: 1. For the compound `C[C@@H]1CCCCO[C@@H](CN(C)C(=O)CCCN(C)C)[C@@H](C)CN([C@H](C)CO)C(=O)c2cc(NS(=O)(=O)c3cn(C)cn3)ccc2O1`, the relative growth was inactive: 0.965. Consider `O=c1nc[nH]c2nn(-c3ccccc3)nc12`, for which the relative growth is inactive: 0.991. As to `C[C@@H]1CN([C@H](C)CO)S(=O)(=O)c2ccc(C#Cc3ccccc3F)cc2O[C@H]1CN(C)C(=O)Cc1cccnc1`, the relative growth was inactive: 1.01. With `OC[C@@H](O)[C@@H](O)[C@H](O)[C@H](O)CO` the figure was inactive: 0.981; with `C[C@@H]1CCCCO[C@H](CN(C)C(=O)Cc2ccccc2)[C@@H](C)CN([C@@H](C)CO)C(=O)c2cc(NC(=O)Nc3ccccc3)ccc2O1`, inactive: 1.01; with `C[C@H]1CN([C@@H](C)CO)C(=O)Cc2cc(NC(=O)Nc3ccc4c(c3)OCO4)ccc2O[C@@H]1CN(C)S(=O)(=O)c1cn(C)cn1`, inactive: 0.994.
